Laboratory results: the supplement of paper PMC10126150
Sequences with one replicate were seen in a single cluster, so their values are uncertain.

Test system: ATP
Test: switch fluorescence ratio, 500 uM ATP over buffer (Cy3 cluster intensity, sum of 5 cycles each) (fold (ratio)); higher = stronger signal-on switching upon ATP binding; sequences stand for … in TCGTCGGCAGCGTCAGATGTGTATAAGAGACAGTTTTTTTTTTTTTTTTTTTTTTTTT…TC
Conditions: aptamer strand: ATP DNA aptamer (quencher-CACCTGGGGGAGTATTGCGGAGGAAGG + anchor), 100 nM annealed; ATP concentration: 500 uM; one replicate
In short: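 Clusters with intensities outside 100-1000 RFU were excluded. The remaining Cy3-labelled switching-strand clusters on a modified Illumina MiSeq flow-cell had been annealed to 100 nM quencher-labelled ATP aptamer and imaged in selection buffer, then after 15 min with 500 uM ATP at 22 °C, for five cycles separated by NaOH stripping and re-annealing. The fluorescence ratio, averaged per switch-domain sequence, is each cluster's summed target-cycle Cy3 intensity over its summed buffer-cycle Cy3 intensity.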
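Further: ATP exposure 15 min at 22 °C before imaging.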

In the case of AGTATTTGGG, the switch fluorescence ratio is reported as 0.969.
TTCCGAGGGA showed a switch fluorescence ratio of 1.13.
GGCGATTTAG gave a switch fluorescence ratio of 0.962.
For GTGGTTGTAA, the switch fluorescence ratio was 0.975.
CAGACTTGTG showed a switch fluorescence ratio of 1.
Work on GCGGTTATCG yielded a switch fluorescence ratio of 1.02.
Sequence CATCGCGTTT has a switch fluorescence ratio of 0.997.
Work on TCTGGGACGA yielded a switch fluorescence ratio of 0.979.
For ATCCGGAGAG, the switch fluorescence ratio was 1.13.
Sequence ATATTGATTG has a switch fluorescence ratio of 0.963.
TCTAAATCCA was tested, and the switch fluorescence ratio was 0.977.
TTATCCGTCC was tested, and the switch fluorescence ratio was 1.06.
AAGGAAGGGC gave a switch fluorescence ratio of 0.984.
For AGCCCTTTGC, the switch fluorescence ratio was 1.02.
GGTGGATCGC gave a switch fluorescence ratio of 1.04.
For GCAAATCCGA, the switch fluorescence ratio was 1.01.
For TCAGTAAAGG, the switch fluorescence ratio was 1.03.
CTTGTGACCT gave a switch fluorescence ratio of 1.22.
For TAACTGAAT, the switch fluorescence ratio was 1.06.
Sequence ACATTGTTGC has a switch fluorescence ratio of 0.988.
For TTCCTCGTAA, the switch fluorescence ratio was 1.33.
TGCGGCTGTG showed a switch fluorescence ratio of 1.01.
TGGACGGTAA showed a switch fluorescence ratio of 1.02.
GAGTGTAAGG showed a switch fluorescence ratio of 0.985.
In the case of AAACGAAAAG, the switch fluorescence ratio is reported as 0.949.
AATCGAATC gave a switch fluorescence ratio of 0.997.
ATACTGACGA showed a switch fluorescence ratio of 1.35.
For CCTTTGAAAT, the switch fluorescence ratio was 1.33.
Work on GCTGGAGTTC yielded a switch fluorescence ratio of 0.981.
For GATGGGGCG, the switch fluorescence ratio was 1.02.
Work on TAGAGATAGG yielded a switch fluorescence ratio of 0.926.
GGGCCGTTCG showed a switch fluorescence ratio of 1.
For CTTATTAATT, the switch fluorescence ratio was 1.
Sequence TCTCTCCCAT has a switch fluorescence ratio of 1.36.
Work on ACGGCGAAG yielded a switch fluorescence ratio of 0.968.
Sequence GCGGCTAGCG has a switch fluorescence ratio of 1.02.
TGGTCCCGC showed a switch fluorescence ratio of 1.11.
Sequence CTGTAGAAAT has a switch fluorescence ratio of 1.39.
In the case of ATATCTTGCA, the switch fluorescence ratio is reported as 1.07.
GAATATCGCT was tested, and the switch fluorescence ratio was 1.07.
CCGCTCCAGG gave a switch fluorescence ratio of 1.66.
Sequence ATTGGCCCAG has a switch fluorescence ratio of 0.992.
For AACGGCCAAT, the switch fluorescence ratio was 1.07.
With GGATGGAAGT the switch fluorescence ratio was 1.04.
Work on GCTTGAATGC yielded a switch fluorescence ratio of 1.03.
TATCGGCCTG was tested, and the switch fluorescence ratio was 1.09.
GATGTGGGAT was tested, and the switch fluorescence ratio was 1.
With GTCAACTGCA the switch fluorescence ratio was 1.02.
With TGCCTCTCCG the switch fluorescence ratio was 1.15.
Sequence TGGTATCTAT has a switch fluorescence ratio of 1.05.
In the case of TGCTTCCAGC, the switch fluorescence ratio is reported as 0.985.
With TCGTGGCCCT the switch fluorescence ratio was 0.99.
CGACTATTGA showed a switch fluorescence ratio of 0.986.
For GATAGAACGC, the switch fluorescence ratio was 1.
Sequence CAGTCAGGCG has a switch fluorescence ratio of 0.957.
In the case of CCACGCGCCC, the switch fluorescence ratio is reported as 2.02.
GAGGAATTTG gave a switch fluorescence ratio of 1.25.
With GTTTGCCTGG the switch fluorescence ratio was 0.943.
In the case of ATGGAACAAA, the switch fluorescence ratio is reported as 0.996.
Sequence TCTTTTTTCT has a switch fluorescence ratio of 1.01.
ATCCCGCCCC was tested, and the switch fluorescence ratio was 1.57.
Work on TCTTACGGCG yielded a switch fluorescence ratio of 1.
CTACTCTGGT gave a switch fluorescence ratio of 0.996.
Work on CTCCCAGCGC yielded a switch fluorescence ratio of 1.81.
GGTGGGTCAA showed a switch fluorescence ratio of 1.05.
Sequence ATGTAGAGGA has a switch fluorescence ratio of 0.987.
Work on GCTCGCCCC yielded a switch fluorescence ratio of 1.13.
For GGGTCATTGG, the switch fluorescence ratio was 1.01.
GTCTCCATTG was tested, and the switch fluorescence ratio was 0.954.
Sequence ACTGTGGTGC has a switch fluorescence ratio of 1.03.
Work on TCCTTATTTA yielded a switch fluorescence ratio of 1.64.
In the case of ATACCACATT, the switch fluorescence ratio is reported as 1.08.
Work on GGGTCATTTT yielded a switch fluorescence ratio of 0.965.
Sequence ATGAACGAGG has a switch fluorescence ratio of 0.998.
With AAAGCTAGCA the switch fluorescence ratio was 0.99.
CGTATTAGGC was tested, and the switch fluorescence ratio was 0.95.
With CTGGGTGCCT the switch fluorescence ratio was 0.982.
In the case of GGGGTGCGCA, the switch fluorescence ratio is reported as 0.803.
For ACCAGACTAT, the switch fluorescence ratio was 1.02.
AATCAGCTAC was tested, and the switch fluorescence ratio was 2.61.
Sequence TTCTAGAATT has a switch fluorescence ratio of 0.978.
With CTCGAGAAAA the switch fluorescence ratio was 1.03.
With GTTGTGTGCA the switch fluorescence ratio was 0.949.
GTGATTCTTT was tested, and the switch fluorescence ratio was 1.01.
TTTGCGTCCA was tested, and the switch fluorescence ratio was 1.01.
TGTATCATAG was tested, and the switch fluorescence ratio was 1.03.
Sequence TATCTCTATT has a switch fluorescence ratio of 0.973.
For TTTCAGTATC, the switch fluorescence ratio was 1.03.
CTCGTCTATT showed a switch fluorescence ratio of 1.01.
With ACAATGGGTT the switch fluorescence ratio was 1.02.
Sequence ACAAAAAGTG has a switch fluorescence ratio of 1.01.
Sequence AGGTCTACA has a switch fluorescence ratio of 1.06.
GAGACCTGTG was tested, and the switch fluorescence ratio was 1.02.
For GTCTGCTTGG, the switch fluorescence ratio was 1.02.
GCACAATTCG was tested, and the switch fluorescence ratio was 1.04.
GCGCTTATGC showed a switch fluorescence ratio of 1.2.
ACAGCGTCGG was tested, and the switch fluorescence ratio was 0.978.
Work on ACGGAGTGTG yielded a switch fluorescence ratio of 1.04.
CGAGCTGGTA showed a switch fluorescence ratio of 1.03.
Sequence CGCCAAAATC has a switch fluorescence ratio of 1.69.
Work on GACGGGAATA yielded a switch fluorescence ratio of 1.31.
ACCGTCGCT was tested, and the switch fluorescence ratio was 1.1.
With CCGGGGTGCA the switch fluorescence ratio was 1.28.
Work on ACGTACCTTA yielded a switch fluorescence ratio of 1.4.
TAGCTCATGT showed a switch fluorescence ratio of 0.956.
Sequence AGAAAGTTCC has a switch fluorescence ratio of 1.21.
Work on AACGGTTATA yielded a switch fluorescence ratio of 1.01.
Sequence AAAGTGTCTA has a switch fluorescence ratio of 0.978.
For CGGGCAGCTA, the switch fluorescence ratio was 1.08.
AGAACTCATG showed a switch fluorescence ratio of 0.957.
For AGGTCAAGAG, the switch fluorescence ratio was 1.02.
With GGACCTCATG the switch fluorescence ratio was 1.05.
Work on GAGATGGTAA yielded a switch fluorescence ratio of 1.04.
Work on TTGCCGCCCA yielded a switch fluorescence ratio of 1.03.
Work on TGTTTCATTA yielded a switch fluorescence ratio of 0.956.
TATCTGCTTT was tested, and the switch fluorescence ratio was 1.01.
GGGATCTACT gave a switch fluorescence ratio of 1.01.
For CAAATTGGCC, the switch fluorescence ratio was 1.03.
Work on CACTGTGGAT yielded a switch fluorescence ratio of 1.01.
For GGCCATTCTC, the switch fluorescence ratio was 0.957.
Sequence ATTCATGGCC has a switch fluorescence ratio of 0.967.
With ATAATTTTCC the switch fluorescence ratio was 1.13.
Work on GGACCCAACT yielded a switch fluorescence ratio of 1.04.
For TGTGTGGGAA, the switch fluorescence ratio was 1.03.
TACGGTTCT gave a switch fluorescence ratio of 1.01.
Work on TAAATCAGGC yielded a switch fluorescence ratio of 0.93.
TAGCACTCG gave a switch fluorescence ratio of 1.09.
For GATTAGGATT, the switch fluorescence ratio was 0.973.
GCAGCTTCTC was tested, and the switch fluorescence ratio was 1.23.
GCGTTCGGTT was tested, and the switch fluorescence ratio was 0.997.
TTCTACTA showed a switch fluorescence ratio of 0.991.
Work on AGAATAAAAG yielded a switch fluorescence ratio of 1.04.
ATGTAGCTTC showed a switch fluorescence ratio of 1.13.
ATGCCCTCGT was tested, and the switch fluorescence ratio was 0.981.
Sequence GGGGTCGATA has a switch fluorescence ratio of 0.978.
CGATATTCGA gave a switch fluorescence ratio of 1.03.
With CATGTTGACT the switch fluorescence ratio was 0.957.
Sequence TTATCAGAGA has a switch fluorescence ratio of 0.973.
TTGTTCACGT gave a switch fluorescence ratio of 0.966.
With CGAAAAGAGC the switch fluorescence ratio was 0.972.
For CCGTGGGATA, the switch fluorescence ratio was 1.03.
CATCCCTTTA was tested, and the switch fluorescence ratio was 1.01.
With TTGCGACCCT the switch fluorescence ratio was 1.02.
GTAAAAGTAG was tested, and the switch fluorescence ratio was 0.944.
Work on CTGGGGACA yielded a switch fluorescence ratio of 1.
Sequence TTCATCTGAG has a switch fluorescence ratio of 1.01.
For TACAGTTAGA, the switch fluorescence ratio was 1.
Work on ATTGGCCCGC yielded a switch fluorescence ratio of 1.02.
Work on TTACAAACT yielded a switch fluorescence ratio of 1.14.
CCTTCCTGGG showed a switch fluorescence ratio of 1.9.
For ATAGGCATAA, the switch fluorescence ratio was 1.04.
GGTTTGTTCT was tested, and the switch fluorescence ratio was 0.957.
TCTGAAGTTG was tested, and the switch fluorescence ratio was 1.05.
Sequence TTGTTCGGAT has a switch fluorescence ratio of 0.971.
With CATCGGGTAC the switch fluorescence ratio was 1.79.
TTCCGTACTT was tested, and the switch fluorescence ratio was 1.05.
AGTCCAAGTT gave a switch fluorescence ratio of 0.975.
